± gives the standard deviation of the averaged measurements. The list shows a part of the results.
Each sequence was assayed on PfAP2-I AP2 domain 3 (GST-tagged) (assay: gcPBM binding intensity (ln(normalized median fluorescence intensity)); higher = stronger DNA binding).
Procedure, shortened: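 Binding intensity is the highest Masliner-normalised natural-log median intensity over replicate spots in either probe orientation. To obtain it, GST-tagged P. falciparum DNA-binding domains made in E. coli were incubated for 1 h on an Agilent 4 × 180k array of primer-extended double-stranded 36-bp intergenic genomic probes plus negative controls. Detection used Alexa488 anti-GST antibody with scanning at 488 nm.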

Sequence | gcPBM binding intensity (ln)
GACCCACTTTTCTGCACACATAAAAAATATATAAAT [CACACA_site4483] | 9.6 ± 0.15
TATAATAAAACTTTTACACACTTTAAAAAAAAAAAA [CACACA_site6392] | 7.86 ± 0.63
TAAAAGTAAAGACATGCATGCATTGGTATCTTTTAC [TGCATGCA_site665] | 7.62 ± 0.86
TTTATATTTAAATATATATGAGAAAACACAAAATAT [TGCATGCA_negctrl_site211] | 8.04 ± 0.45
TACATATTTATATACACACACACCCTAAAAATATAT [CACACA_site6861] | 8.13 ± 0.33
AAAAGAATTACTTTCACACATATATATCTGTAAATA [CACACA_site5798] | 7.51 ± 0.65
ATAATTTTTTTTTTTTTTTTTTGAAAGTAGCATATG [CACACA_negctrl_site732] | 7.51 ± 0.54
AATAATGAAGCTTATGCACACGTTCATTATTTATAT [CACACA_site5736] | 9.72 ± 0.47
TAACAAAACCTTATATGTACACACATATACATCACA [XGTACX_site6772] | 7.91 ± 0.33
TTAAAAATGAACATATGTACATATATATATATATAT [XGTACX_site7923] | 9.45 ± 0.46
TTATCATTTTAAATCACACACATATATATATATATA [CACACA_site2849] | 9.305 ± 0.078
ACTACAAGGCAATACAGTACATATAAATGTCATAAT [XGTACX_site8468] | 7.85 ± 0.45
AAAAAGGTTATTGGTACACACATATGTATTTATATA [CACACA_site4464] | 7.78 ± 0.49
TACCTTTTATTAATGTGTACCTAAAATATAATACTT [XGTACX_site192] | 7.86 ± 0.55
AAAATATAAAAAGTCACACATATATATATTTATTTA [CACACA_site4872] | 7.41 ± 0.52
TTGAATGAAAAAATTTGTACTCATATAAATAATTTA [XGTACX_site4628] | 7.5 ± 0.31
CAATAATTTTTTGTGGGTACAAATAATTTTTTAAAT [XGTACX_site2407] | 7.71 ± 0.38
AGGAGAAAAGATAAAGACTTCAAGAAAAAAAAATAA [TGCATGCA_negctrl_site258] | 7.45 ± 0.7
GATGCTAAAATTTATACACACAAAAAAAAAAAATTC [CACACA_site3284] | 7.96 ± 0.65
AAAAAAAAAAAATATACACACACACCGACACATAAA [CACACA_site9270] | 8.04 ± 0.42
TATTTTATGTAAATTGGTACACATATGTCAGTAAAA [XGTACX_site7111] | 8.04 ± 0.48
TTTCATATTTTGTCCTGTTTTTTTTTTTTTTTTCTT [CACACA_negctrl_site993] | 7.53 ± 0.59

Sequence | gcPBM binding intensity (ln)
TTTTGAATATTTGGTCGTACGTAAAAATAGATAATT [XGTACX_site5755] | 8.12 ± 0.44
ATATTTATGGAAAAAGAACACACAATCAAACAAAAA [CACACA_site9233] | 8.14 ± 0.54
CTTTTTTATATCTCTACACACATTTATAACCATTTG [CACACA_site4897] | 7.94 ± 0.65
ATACATTTATTGTATTGTACATAATATTATATATTC [XGTACX_site7115] | 7.76 ± 0.57
TATTTTAAAAAAAAAAGTACACATAATATATATAAC [XGTACX_site5416] | 8.06 ± 0.22
TAATATAATAGAAGTGTACACACATATTTATGGGTG [CACACA_site9023] | 8.12 ± 0.45
AATAATTTTTAAATATAAACATTTTTTTTTTTTTTT [GTGCAC_negctrl_site532] | 7.96 ± 0.64
ATTAAATGCACATATACACACACCCAATTTTAAGTT [CACACA_site3049] | 10.1 ± 0.45
ATATATATATATTCCACACACACACCCAAAAAAAAA [CACACA_site3649] | 9.43 ± 0.18
ACAAAATAAACCACGTGTACAAATTTATAATGTGTA [XGTACX_site1153] | 7.96 ± 0.42
ATAAAATATTAGACATTTATTAATATTACACATATC [XGTACX_negctrl_site364] | 7.5 ± 0.66
TTTTATTTTTTATTTGCACACAATATGTAAAAAAAT [CACACA_site2927] | 10.2 ± 0.53
TTATAATAAAGAGGAGTGCAAAAAAAAAAAAAAAAA | 10.5 ± 0.45
AATCAAAATATATCTACACACATTTAAGTAACACAT [CACACA_site3482] | 7.84 ± 0.46
TAAATATCAAAACACACACACAAAAGTGAATAAATA [CACACA_site3762] | 7.62 ± 0.44
AAAAAAAAAAAAAACACACACACACCCACATATACA [CACACA_site2663] | 8.47 ± 0.56
TATAAGGTGTCCTATACACACTCCAATAAATATATA [CACACA_site2091] | 7.9 ± 0.31
TAAAGAGAAAAACATACACACACAACAAAATATGTA [CACACA_site8872] | 7.57 ± 0.5
AGGAACATAAGCAATGTATAAACATAAAACTATAAT [CACACA_negctrl_site1832] | 7.67 ± 0.64
TATTAATTAAACCATACACACATAACTTTTTTATAA [CACACA_site6526] | 7.67 ± 0.36
ATTTTTTTCTTAGGAGTGCACTTATATTTATTTTAT | 10.8 ± 0.49
ACAAGGAATATATAAGATAATTTTAAATATAACACG [CACACA_negctrl_site1734] | 7.78 ± 0.56

Sequence | gcPBM binding intensity (ln)
ATATATATAATTTTTACACACGCAATAAATATATAT [CACACA_site218] | 8.01 ± 0.67
TATACATACATACATACACACACACCGATATATACA [CACACA_site8184] | 8.15 ± 0.35
TTCCAAAAAATTATTACACACATATGGGCACATATA [CACACA_site679] | 7.91 ± 0.45
ATTCTATAATATAAGAGTACTTATTTTTTTTAATTT [XGTACX_site7671] | 7.64 ± 0.48
TATAAAATTAAACAAAGTACTAGACATATATATAGA [XGTACX_site3247] | 7.74 ± 0.54
AATGTTATTTGTTTATCACACATTAGGATGTTTATA [CACACA_site5710] | 7.78 ± 0.74
ACGCTAATTATGTGCACACAAATTAAAGGTCTACAA [CACACA_site147] | 10.65 ± 0.057
TGTTTCTGCTCTGGACATTTTTAAAAAAGGGAAAGC [CACACA_negctrl_site1463] | 8.18 ± 0.4
ACAAAAAAACATGAAACACACACAAATATATATATA [CACACA_site8566] | 9.08 ± 0.13
TGCCTATTTTGGATGTGTACACATATATATATTTAT [XGTACX_site6741] | 8.22 ± 0.25
AAAAAAAAAAAAAACACACACACAAGAGTATATAAA [CACACA_site6580] | 8.21 ± 0.53
ATGAATTTATTACATTGTACATTTTTAAAAGGTTAC [XGTACX_site124] | 7.75 ± 0.42
TTATATATTTTTTTTTGTACATAGAAGAGGGAAAAA [XGTACX_site2178] | 8.08 ± 0.28
TACACGCTAAAATACACACACACACCCACATATATA [CACACA_site4153] | 8.04 ± 0.33
TTCCCTCCTCAAAATTGTACTAGAATAATAACATAA [XGTACX_site8765] | 7.79 ± 0.19
TTTTTTAAACATATTATGTGTATTACATAGTTATGC [XGTACX_negctrl_site596] | 7.65 ± 0.48
TTATAATATTATAAAATAACATTTATTAATTATTGG [CACACA_negctrl_site1794] | 7.39 ± 0.4
TTATTATATTAAAATTGTACTTGCTTTCAATATGAT [XGTACX_site5305] | 7.61 ± 0.28
TAAACGTTATATAGTGCATGTCATATTTTATTATAT [TGCATGCA_site935] | 8.37 ± 0.56
ACGATGCATTAATCTGCACACCACAACAAAACGTTT [CACACA_site899] | 9.47 ± 0.014
AATCATTTTATTATCCTAACAAAAAAAAAATATATT [CACACA_negctrl_site115] | 7.43 ± 0.41
ACAACGCGTTAAATGTGTACATATTTATAAGTATAT [XGTACX_site8777] | 7.91 ± 0.34

Sequence | gcPBM binding intensity (ln)
AGCTATGTATTCTACACACACATACAGACATATATA [CACACA_site3428] | 7.96 ± 0.67
TTTGCATTTCTTAATTGTACTTAAAAAAAAAATAAT [XGTACX_site758] | 7.88 ± 0.2
TATACCAATGAATGAGTGCAAAGAAGATAAGGAAAA | 9.91 ± 0.23
AAGGTATTTATAACTACACACTTATTTATAACCTAA [CACACA_site6194] | 7.49 ± 0.56
AATAAAATGAAATGAAATAAAAAAAAAAAAAAAATG [TGCATGCA_negctrl_site305] | 7.69 ± 0.37
ACTTATTGTGGTTTTGCATGTAGCATTTTTACATAC [TGCATGCA_site247] | 8.62 ± 0.91
AAAAAAAAAAAAAAATTAAAGTAATGGAAAAAAAAA [CACACA_negctrl_site1666] | 7.79 ± 0.6
TATATTATAAACATATGTACATATGTATAAATACAT [XGTACX_site722] | 7.75 ± 0.35
AACATATATATATACACACACATATATATATGAAAT [CACACA_site279] | 7.74 ± 0.3
ATTATTAATATTATATGTACGCACTATATCAAGGCT [XGTACX_site6468] | 8.82 ± 0.028
ATATTATAATTAAAACGTACGTATTTATGAATTCAT [XGTACX_site1047] | 7.91 ± 0.38
TATTAATTAAACCATACACACATAATTTTTTTATAA [CACACA_site843] | 7.64 ± 0.35
TACATAAATTAAAACACACACACACTAAAAAAAAAA [CACACA_site7130] | 8.31 ± 0.38
GTTAATATTTACTACACACACTTAAAATATGTATAT [CACACA_site4194] | 7.92 ± 0.6
TTTTCATTTTTCTTTACACACATATATTTATTTATA [CACACA_site7119] | 8.19 ± 0.36
TATATATATATTGAAGTGCAAAATACTGTACGTAAT | 9.98 ± 0.21
GAAATAATTTCATATACACACATATACATACATACA [CACACA_site1358] | 8.44 ± 0.72
AAAAGAATATAAAGATACATTGTGATATGGGACAAA [CACACA_negctrl_site405] | 7.8 ± 0.66
TATATATATATAAACAGTACACAAATTGTAAATAAA [XGTACX_site8268] | 9.11 ± 0.085
TTAATTCTACTTATTACACACATATTAATCAAAAAT [CACACA_site1478] | 7.89 ± 0.35
TATATATATATATATATTGAAATTTATAATAATATT [TGCATGCA_negctrl_site407] | 9.09 ± 0.26
ATTTTTTTATGTACACAAAAAAAAAAAAAAATTTAA [CACACA_negctrl_site1028] | 7.99 ± 0.099

Source: the supplement of paper PMC11417369
